# From the supplement of paper PMC8728848
# The other results are listed elsewhere or left out.
# B1: Gal 7 (Homo sapiens) (protein)
# chain: MSNVPHKSSLPEGIRPGTVLRIRGLVPPNASRFHVNLLCGEEGGSDAALHFNPRLDTSEVVFNSKEGGSWGREESGPGVPFGRGQPFEVLIIASDDGFKAVVGDAQYHHFRHRLPLARVRLVEVGGDVQLDSVRIF
# Experiments:
# Assay in all cases: glycan array binding signal (z-score within array); higher = stronger binding
# Conditions in all cases: glycan notation: IUPAC condensed, linker removed; mutation: R74S
# [1] = target: Neu5Ac(a2-3)Gal(b1-4)GlcNAc(b1-3)[Neu5Ac(a2-3)Gal(b1-4)GlcNAc(b1-6)]GalNAc
# Outline: (§1)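 Negative Z-scores can be read as non-binding. The Z-score is calculated within each array and then averaged across arrays of one protein sequence at different concentrations or buffers and across linkers. Arrays, 3228 in all, were curated from the Consortium for Functional Glycomics database and kept only where the protein sequence was available.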
# [2] = target: Neu5Ac(a2-3)Gal(b1-4)GlcNAc(b1-6)GalNAc
# Outline: as §1
# [3] = target: Neu5Ac(a2-3)Gal(b1-4)GlcNAc(b1-6)[Gal(b1-3)]GalNAc
# Outline: as §1
# [4] = target: Neu5Ac(a2-3)Gal(b1-4)GlcNAc(b1-6)[Neu5Ac(a2-3)Gal(b1-3)]GalNAc
# Outline: as §1
# [5] = target: Neu5Ac(a2-3)Gal(b1-4)GlcNAc6S
# Outline: as §1
# [6] = target: Neu5Ac(a2-3)Gal(b1-4)[Fuc(a1-3)]GlcNAc
# Outline: as §1
# [7] = target: Neu5Ac(a2-3)Gal(b1-4)[Fuc(a1-3)]GlcNAc(b1-2)Man
# Outline: as §1
# [8] = target: Neu5Ac(a2-3)Gal(b1-4)[Fuc(a1-3)]GlcNAc(b1-3)Gal
# Outline: as §1
# [9] = target: Neu5Ac(a2-3)Gal(b1-4)[Fuc(a1-3)]GlcNAc(b1-3)Gal(b1-4)GlcNAc
# Outline: as §1
# [10] = target: Neu5Ac(a2-3)Gal(b1-4)[Fuc(a1-3)]GlcNAc(b1-3)Gal(b1-4)[Fuc(a1-3)]GlcNAc(b1-3)Gal(b1-4)[Fuc(a1-3)]GlcNAc
# Outline: as §1
# [11] = target: Neu5Ac(a2-3)Gal(b1-4)[Fuc(a1-3)]GlcNAc(b1-3)GalNAc
# Outline: as §1
# [12] = target: Neu5Ac(a2-3)Gal(b1-4)[Fuc(a1-3)]GlcNAc(b1-6)[Gal(b1-3)]GalNAc
# Outline: as §1
# [13] = target: Neu5Ac(a2-3)Gal(b1-4)[Fuc(a1-3)]GlcNAc(b1-6)[Neu5Ac(a2-3)Gal(b1-3)]GalNAc
# Outline: as §1
# [14] = target: Neu5Ac(a2-3)Gal(b1-4)[Fuc(a1-3)]GlcNAc6S
# Outline: as §1
# [15] = target: Neu5Ac(a2-3)Gal6S(b1-4)GlcNAc
# Outline: as §1
# [16] = target: Neu5Ac(a2-3)Gal6S(b1-4)[Fuc(a1-3)]GlcNAc
# Outline: as §1
# Neu5Ac(a2-3)GalNAc = target: Neu5Ac(a2-3)GalNAc
# Outline: as §1
# [17] = target: Neu5Ac(a2-3)GalNAc(b1-4)GlcNAc
# Outline: as §1
# [18] = target: Neu5Ac(a2-3)[GalNAc(b1-4)]Gal(b1-4)Glc
# Outline: as §1
# [19] = target: Neu5Ac(a2-3)[GalNAc(b1-4)]Gal(b1-4)GlcNAc
# Outline: as §1
# [20] = target: Neu5Ac(a2-3)[GalNAc(b1-4)]Gal(b1-4)GlcNAc(b1-3)GalNAc
# Outline: as §1
# [21] = target: Neu5Ac(a2-3)[Neu5Ac(a2-6)]GalNAc
# Outline: as §1
# Neu5Ac(a2-6)Gal = target: Neu5Ac(a2-6)Gal
# Outline: as §1
# [22] = target: Neu5Ac(a2-6)Gal(b1-3)GlcNAc(b1-3)[Gal(b1-4)GlcNAc(b1-6)]Gal(b1-4)Glc
# Outline: as §1
# Neu5Ac(a2-6)Gal(b1-4)Glc = target: Neu5Ac(a2-6)Gal(b1-4)Glc
# Outline: as §1
# [23] = target: Neu5Ac(a2-6)Gal(b1-4)GlcNAc
# Outline: as §1
# [24] = target: Neu5Ac(a2-6)Gal(b1-4)GlcNAc(b1-2)Man
# Outline: as §1
# [25] = target: Neu5Ac(a2-6)Gal(b1-4)GlcNAc(b1-2)Man(a1-3)Man(b1-4)GlcNAc(b1-4)GlcNAc
# Outline: as §1
# [26] = target: Neu5Ac(a2-6)Gal(b1-4)GlcNAc(b1-2)Man(a1-3)[Gal(b1-4)GlcNAc(b1-2)Man(a1-6)]Man(b1-4)GlcNAc(b1-4)GlcNAc
# Outline: as §1
# [27] = target: Neu5Ac(a2-6)Gal(b1-4)GlcNAc(b1-2)Man(a1-3)[GlcNAc(b1-4)][Neu5Ac(a2-6)Gal(b1-4)GlcNAc(b1-2)Man(a1-6)]Man(b1-4)GlcNAc(b1-4)GlcNAc
# Outline: as §1
# [28] = target: Neu5Ac(a2-6)Gal(b1-4)GlcNAc(b1-2)Man(a1-3)[Man(a1-6)]Man(b1-4)GlcNAc(b1-4)GlcNAc
# Outline: as §1
binder,measurement,setting,value
B1,glycan array binding signal (z-score),[1],-0.377
same,glycan array binding signal (z-score),[2],-0.433
same,glycan array binding signal (z-score),[3],-0.065
same,glycan array binding signal (z-score),[4],-0.553
same,glycan array binding signal (z-score),[5],-0.783
same,glycan array binding signal (z-score),[6],-0.573
same,glycan array binding signal (z-score),[7],-0.6
same,glycan array binding signal (z-score),[8],-0.471
same,glycan array binding signal (z-score),[9],1.25
same,glycan array binding signal (z-score),[10],0.389
same,glycan array binding signal (z-score),[11],1.62
same,glycan array binding signal (z-score),[12],1
same,glycan array binding signal (z-score),[13],1.3
same,glycan array binding signal (z-score),[14],-0.478
same,glycan array binding signal (z-score),[15],-0.663
same,glycan array binding signal (z-score),[16],-0.211
same,glycan array binding signal (z-score),Neu5Ac(a2-3)GalNAc,-0.184
same,glycan array binding signal (z-score),[17],-0.746
same,glycan array binding signal (z-score),[18],-0.437
same,glycan array binding signal (z-score),[19],-0.543
same,glycan array binding signal (z-score),[20],-0.229
same,glycan array binding signal (z-score),[21],0.531
same,glycan array binding signal (z-score),Neu5Ac(a2-6)Gal,-0.662
same,glycan array binding signal (z-score),[22],-0.247
same,glycan array binding signal (z-score),Neu5Ac(a2-6)Gal(b1-4)Glc,-0.373
same,glycan array binding signal (z-score),[23],-0.346
same,glycan array binding signal (z-score),[24],-0.022
same,glycan array binding signal (z-score),[25],-0.478
same,glycan array binding signal (z-score),[26],0.309
same,glycan array binding signal (z-score),[27],-0.221
same,glycan array binding signal (z-score),[28],-0.264
